# Data taken from PubChem BioAssay AID1460 (National Center for Advancing Translational Sciences (NCATS), 2008).
# The campaign covered roughly 270,000 compounds. About 5,800 (2.1%) were called active. Inconclusive means that the source gave no clear call. Such entries were picked first, then a sample of the others. Calls follow the shape of the dose curve; as a rule, active = well fitted inhibition curve with a large enough effect; inconclusive = small, poorly fitted or top-dose-only effect; inactive = flat fitted curve, though single readings scatter. A potency beside an inconclusive call is a rough fit, not a confirmed value.
# Target: Microtubule-associated protein tau (Homo sapiens) (UniProt P10636)
# UniProt P10636, sequence (P10636 whole entry, looked up): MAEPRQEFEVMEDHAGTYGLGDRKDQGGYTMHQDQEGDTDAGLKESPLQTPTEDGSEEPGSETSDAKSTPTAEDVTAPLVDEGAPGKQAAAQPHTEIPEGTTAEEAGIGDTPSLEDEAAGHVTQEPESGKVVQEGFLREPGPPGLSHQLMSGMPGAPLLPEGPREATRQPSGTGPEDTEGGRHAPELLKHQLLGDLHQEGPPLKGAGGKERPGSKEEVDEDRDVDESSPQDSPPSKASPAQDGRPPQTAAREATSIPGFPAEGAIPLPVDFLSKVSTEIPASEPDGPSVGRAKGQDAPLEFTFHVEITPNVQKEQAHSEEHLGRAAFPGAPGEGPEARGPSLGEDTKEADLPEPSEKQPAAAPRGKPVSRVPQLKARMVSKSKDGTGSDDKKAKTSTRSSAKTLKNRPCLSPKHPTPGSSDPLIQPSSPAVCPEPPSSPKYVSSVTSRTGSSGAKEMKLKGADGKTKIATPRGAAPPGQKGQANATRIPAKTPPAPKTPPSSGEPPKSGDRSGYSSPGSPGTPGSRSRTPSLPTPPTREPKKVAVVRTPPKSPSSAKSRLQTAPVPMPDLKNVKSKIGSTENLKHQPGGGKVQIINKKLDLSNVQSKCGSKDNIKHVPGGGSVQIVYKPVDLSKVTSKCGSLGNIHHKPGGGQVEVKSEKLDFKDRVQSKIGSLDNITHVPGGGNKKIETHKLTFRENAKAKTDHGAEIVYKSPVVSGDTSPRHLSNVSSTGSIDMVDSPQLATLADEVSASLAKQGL
# Assay: qHTS for Inhibitors of Tau Fibril Formation, Thioflavin T Binding; also: nearly all actives have a fitted effect of over 55% in size
# Settings: recombinant tau K18 P301L (four-repeat tau fragment), heparin-induced fibrillization, ThT fluorescence; series mostly up to 57.4 µM; activity, negative = inhibition: at the top concentration
# How it was run: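 Recombinant human tau K18 fragment […] carrying P301L, 15 uM unlabeled plus 0.24 uM Alexa 594-labeled, was fibrillized with 20 uM heparin in 100 mM sodium acetate pH 7 for 6 hr at 37 C; 30 uM ThT fluorescence read after 1 hr.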
# % is scaled to controls: 0 for no effect and ±100 for the full control effect; potency is read from the fitted curve at half-maximal effect; tags tell the direction and shape of the fitted curve.
SMILES,Potency,"activity, negative = inhibition"
CN(C)c1ccc(NS(=O)(=O)c2cc(Cl)ccc2Cl)cc1,"inconclusive: 28.2 µM [inhibitor, partial curve]",–
O=c1c(-c2n[nH]c(=S)o2)cccn1Cc1ccccc1,–,inactive: -7.74%
O=C(/C=C/c1cccs1)Nc1ccc(N2CCOCC2)c(S(=O)(=O)Nc2cc(Cl)ccc2Cl)c1,–,inactive: 4.8%
CCc1nnc(NS(=O)(=O)c2ccc(N/C=C\C(=O)c3ccc(C)cc3)cc2)s1,"inconclusive: 15.8 µM [inhibitor, partial curve]",–
Cc1cccc2c1NC(=O)/C2=C\C(=O)c1cccs1,active: 22.4 µM,–
Cc1ccc2nc(NC(=O)c3cc(=O)c4cc(Cl)ccc4o3)sc2c1,"inconclusive: 12.6 µM [inhibitor, partial curve]",–
COC(=O)Nc1nc2ccc(C(=O)c3cccs3)cc2[nH]1,"inconclusive: 20 µM [inhibitor, partial curve]",–
COc1ccc(OCc2nn3c(-c4cccc(OC)c4)nnc3s2)cc1,"inconclusive: 3.55 µM [inhibitor, full curve]",–
c1ccc2c(-c3nc(-c4ccncc4)no3)cccc2c1,"inconclusive: 12.6 µM [inhibitor, partial curve]",–
C=CCc1cccc2cc(C(=O)N3CCN(c4ccccn4)CC3)c(=O)oc12,"inconclusive: 15.8 µM [inhibitor, single point]",–
Cc1cc(N2CCC(C)CC2)nc2ccc(NC(=O)/C=C/c3cccc(Cl)c3)cc12,active: 6.31 µM,–
O=C(/N=C1\NC(=O)C(F)(C(F)(F)F)S1)NC1CCCCC1 (stereo unspecified),active: 25.1 µM,–
CCc1cc2c(nc1CC)CCN(CC/C(C)=N/OCC[C@@H]1C=C[C@H](OC(C)=O)[C@H](COC(C)=O)O1)C2,–,inactive: -9.59% [at 11.5 µM]
CCCCOC(=O)c1ccc(NC(=O)Cc2coc3ccc(C(C)C)cc23)cc1,"inconclusive: 20 µM [inhibitor, single point]",–
CC(=O)N=C(N)Sc1nc2ccccc2[nH]1,–,inactive: 4.5%
Cc1ccc2c(c1)N(C(=O)N1CCC(C(=O)NCc3ccco3)CC1)CC(C)O2 (stereo unspecified),–,inactive: 6.76%
Cc1ccc(S(=O)(=O)CCC(=O)N2CCN(c3nc4c(C)c(Cl)ccc4s3)CC2)cc1,"inconclusive: 8.91 µM [inhibitor, full curve]",–
N#Cc1cc(-c2ccccc2)nn1-c1ccccc1,"inconclusive: 31.6 µM [inhibitor, partial curve]",–
CCOc1ccc(N=C2SC(C(=O)O)CC(=O)N2C)cc1 (stereo unspecified),–,inactive: 8.58%
COc1ccc(Cn2c(O)c(C=Nc3ccc(O)cc3)c3ccccc3c2=O)cc1,"inconclusive: 22.4 µM [inhibitor, single point]",–
Cc1nc(SCC(=O)Nc2ccc(Br)cc2)[nH]c(=O)c1Cc1ccccc1,"inconclusive: 11.2 µM [inhibitor, partial curve]",–
Cc1ccc(C)c(S(=O)(=O)c2nnn3c2nc(Nc2ccc(F)c(Cl)c2)c2sccc23)c1,"inconclusive: 7.94 µM [activator, full curve]",–
COc1ccc(N2CCN(c3cc(C)c4ccc(O)cc4n3)CC2)cc1,"inconclusive: 12.6 µM [inhibitor, partial curve]",–

SMILES,Potency,"activity, negative = inhibition"
CCN1C(=O)C(CC(=O)Nc2ccc(F)cc2)N(CCCN2CCN(c3ccc(F)cc3)CC2)C1=S (stereo unspecified),"inconclusive: 25.1 µM [inhibitor, partial curve]",–
CCNc1nc(C23CC4CC(CC(C4)C2)C3)cs1,"inconclusive: 20 µM [inhibitor, single point]",–
O=C(O)Cc1coc2ccc3ccccc3c12,–,inactive: 6.58%
COCCn1nc2cc(C(=O)NCc3cc(C(F)(F)F)cc(C(F)(F)F)c3)ccc2c1OC,–,inactive: 6.45%
CCOC(=O)C1CCC(CN(Cc2c(Cl)cccc2Cl)S(=O)(=O)c2ccc(F)cc2)CC1 (stereo unspecified),–,inactive: -3.19%
CCc1nnc(SCc2nc(-c3ccc(OC)cc3)oc2C)c2cc3sccc3n12,"inconclusive: 11.2 µM [inhibitor, partial curve]",–
COc1ccc(C(=O)N(CC2CCCO2)C(C(=O)NCCC(C)C)c2ccc(C)cc2)cc1OC (stereo unspecified),–,inactive: 0.166%
CC(S)C(=O)NCC(=O)O (stereo unspecified),"inconclusive: 20 µM [inhibitor, partial curve]",–
Cc1cc(C)c2c(CN3CCN(C/C=C/c4ccccc4)CC3)cc(=O)oc2c1,"inconclusive: 31.6 µM [inhibitor, single point]",–
Cc1cc(C)n(-c2nnc(N3CCN(c4ccc(F)cc4)CC3)nn2)n1,active: 12.6 µM,–
O=C(NCc1ccc(N2CCCC2=O)cc1)Nc1cccc(Cl)c1,–,inactive: 3.62%
COc1cccc(C(=O)NNC(=O)Cc2ccc([N+](=O)[O-])cc2)c1,"inconclusive: 31.6 µM [inhibitor, single point]",–
O=C(C/C=N/OCc1ccccc1F)c1cnc(-c2ccc(Cl)cc2)s1,"inconclusive: 28.2 µM [inhibitor, single point]",–
Cc1cccc(N/C=C/C(=O)c2cccs2)c1C,"inconclusive: 8.91 µM [inhibitor, partial curve]",–
Cc1cc2c(N=NC(=O)CCc3ccccc3)c(O)[nH]c2cc1Br,"inconclusive: 4.47 µM [inhibitor, full curve, poor fit]",–
Cc1cc(=O)[nH]c(SCC(=O)Nc2ccc(C(=O)O)cc2)n1,–,inactive: -4.72%
CN=C(NC#N)NCCSCc1csc(N=C(N)N)n1,"inconclusive: 44.7 µM [inhibitor, single point]",–
Cc1cccc(C(=O)Nc2nc(-c3ccc(Br)cc3)ns2)c1,–,inactive: -4.71%
COc1ccc(-c2cc(=O)n(-c3ccc([N+](=O)[O-])cc3)[nH]2)cc1,active: 11.2 µM,–
CCOC(=O)c1c(N)sc2c1C1CCN2CC1,–,inactive: -6.57%
COc1ccc(-c2coc3c2c(C)cc2oc(=O)cc(C)c23)cc1,"inconclusive: 4.47 µM [inhibitor, full curve]",–
Clc1cccc(-c2nnc(SCc3nc4ccccc4[nH]3)n2Cc2ccco2)c1,"inconclusive: 39.8 µM [inhibitor, single point]",–
CC1=C(C(=O)Nc2cccnc2)C(c2ccccc2)n2nc(SCc3ccccc3F)nc2N1 (stereo unspecified),"inconclusive: 39.8 µM [inhibitor, single point]",–
